Measured values taken from PubChem BioAssay (NCI).
Where “and” joins values, the source holds several entries; their conditions need not be identical. Equal entries are not always repeated.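 Protocol summary: plate cells (96-well), add compound at 5 concentrations, incubate 48 h, interpolate endpoints linearly. At the GI50, growth is halved. At the TGI there is no net growth.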

test system: NCI-H322M lung; assay: inhibition of tumour cell growth, NCI panel, 48 h

SMILES	TGI [µM]	GI50
O=C1c2ccccc2C2(O)Nc3c(ccc4ccccc34)C12O (stereo not drawn)	> 100	–
Cc1ccnc2[nH]c(-c3cccc4ccccc34)cc(=O)c12	> 100	0.0161 µM
CC(C)(C)c1cc(COc2cc(COc3ccc(-c4c5c(nc6c4CCc4ccc(-c7c8ccccc8nc8ccccc78)cc4-6)-c4cc(-c6c7ccccc7nc7ccccc67)ccc4CC5)cc3)cc(OCc3cc(C(C)(C)C)cc(C(C)(C)C)c3)c2)cc(C(C)(C)C)c1	> 100	–
CC(=O)N(C)C=C1C(=O)N(C)C(=O)N(C)C1=O	> 100	–
CC(=O)NC1C(O)CC(OCCCSCCN)(C(=O)O)OC1C(O)C(O)CO (stereo not drawn)	> 100	–
O=c1ccc2ccc(O)c3c4c(=O)ccc5ccc(O)c(c1c23)c54	10.9	–
COc1ccc2[nH]c(C(=O)N3CCN(C(=O)OCc4ccc5c(Br)cc(Br)c(O)c5n4)CC3)cc2c1	3.04	1.59 µM
COc1cccc(C2SCC(=O)N2c2ccc(-c3ccc(-n4c(-c5ccccc5)nc5ccccc5c4=O)cc3)cc2)c1OC (stereo not drawn)	> 100	–
COc1cc2c3c(n(CCCN(C)C)c(=O)c2cc1OC)-c1cc2c(cc1C3=O)OCO2	2.66	1.26 µM
C=C[C@H]1CN2CCc3c([nH]c4cc(O)ccc34)[C@@H]2C[C@@H]1C[C@H]1c2[nH]c3ccccc3c2CCN1C	11.2	–
C=C1C(=O)C2=C[C@H]1C[C@H](O)C(=O)[C@]1(C)CCCC(C)(C)[C@H]1C[C@H]2O	29.7	–
CN(C)c1ccc(Cc2cc(C(C)(C)C)cc(C(C)(C)C)c2O)cc1	40.4	–
CCCCCCC/C(=N\N=C(N)N)c1ccc(O)cc1	9.08	2.67 µM
C=C[C@@]1(C)CC2(C=C(CO)C(O)O2)Oc2c1c(=O)oc1cccc(C)c21 (stereo partly drawn)	52.6	–
O=C(c1c(Cl)cc(Cl)cc1Cl)N(Cc1cccnc1)C(=S)N(Cc1cccnc1)C(=O)c1c(Cl)cc(Cl)cc1Cl	25.1	–
CO/N=C/C=C\C(=O)N/C=C/C[C@H]1/C=C/[C@H](O)/C=C\C=C\c2cccc(O)c2C(=O)O1	> 100	1.48 µM and 1.45 µM
O=c1[nH]c2ccccc2nc1CBr	62.1	–
CCOC(=O)C1C=C1C(C)(C)O (stereo not drawn)	> 10	–
C=C1CC(c2ccc(O)c(OC)c2)Oc2c(OC)cccc21 (stereo not drawn)	> 100	–
CCC(=O)Oc1cc(/C=C/C(=O)O[C@H]2C[C@H]3CN4CCc5c([nH]c6cc(OC)ccc56)[C@@H]4C[C@@H]3[C@@H](C(=O)OC)[C@@H]2OC)ccc1OC	> 100	97.3 µM
COC(=O)c1c(C(=O)OC)c2ccc(-c3ccc(Cl)cc3)nn2c1C(=O)c1ccc([N+](=O)[O-])cc1	> 100	–
O=C(/C=C/c1ccc2c(c1)OCO2)NCc1ccco1	> 100	–
O=S(=O)(N/N=C/c1c(Cl)cccc1Cl)c1ccccc1	> 100	–
O=[N+]([O-])[O][Sn]([O][Sn]([O][N+](=O)[O-])([c]1ccccc1)[c]1ccccc1)([c]1ccccc1)[c]1ccccc1	> 100	> 100 µM
N#Cc1c(-c2ccc(Cl)cc2)cc(-c2cc(O)ccc2O)nc1N	18	1.22 µM

SMILES	TGI [µM]	GI50
CC(=O)OCCOCn1cc(C=O)c2ccccc21	> 100	–
O=S(=O)(Cc1nc2ccccc2s1)c1nc2ccccc2s1	31.4	–
Cn1ccnc1Cn1cc(-c2cccc(-c3cn[nH]c3)c2)cn1	> 100	–
CC(=O)CC1(O)C(=O)c2c(Br)sc(Br)c2C1=O	> 100	–
CCN(CC)CCCNc1ccc2ncn3c4ccc(O)cc4c(=O)c1c23	15.4	1.54 µM
C[N+](C)(C)CC1CCc2ccccc2C1=O (stereo not drawn)	33.4	–
CCN(CCCl)CCCCNc1c2ccccc2nc2ccc(OC)cc12	4.75	–
O=c1cc(N2CCOCC2)oc2c(-c3ccc4c(c3)OCCO4)csc12	11.3	0.471 µM
CCCCCc1c(Cl)nc(Cl)nc1Cl	31.3	–
CN(C)c1ccc(/C=C(/C(=O)O)c2csc(-c3nc(/C(=C\c4ccc(N(C)C)cc4)C(=O)O)cs3)n2)cc1	> 100	–
Cc1ccc2c3c4c(ccc13)C(C)(C)OC4=C(C(C)C)C2=O	> 100	–
Cc1cc(C)c(S(=O)(=O)N2CCN(c3cc4c(cc3F)c(=O)c(C(=O)O)cn4C3CC3)CC2)c(C)c1	> 100	5.19 µM
Cc1cc(C)n(-c2nc3ccccc3c(=O)[nH]2)n1	32.6	–
COc1ccc(C(=O)C2C(C#N)C(C#N)C3C=Cc4ccccc4N32)cc1 (stereo not drawn)	> 100	6.31 µM
CO[C@@H]1[C@H](O)CC[C@]2(CO2)[C@H]1[C@@]1(C)O[C@@H]1CC=C(C)C	> 200	–
COc1nc(SC)nc2c1C(O)n1c(nc3ccccc31)S2 (stereo not drawn)	65.4	–
Cn1cc(-c2ccc(-c3cn(C)c4ncccc34)[nH]2)c2cccnc21	> 100	21 µM
CC(C)=NN/C(=N\S(=O)(=O)c1cc2ccccc2s1)Nc1ccc(Cl)cc1	> 100	–
CCN(CC)C(=O)c1c(Cl)cc(N(CC)CC)oc1=O	> 100	–
CCCCCCC(C)c1ccc2c(c1)C(=O)c1nc3ccncc3c(=O)n1-2 (stereo not drawn)	> 31.6	–
CCOC1c2cc(OC)c(OC)cc2-c2ccc3ccccc3c2N1C (stereo not drawn)	70.4	–
Cn1c(=O)n2c(=O)n(C)c(=O)n2c1=O	> 100	–
Cc1cc(Br)ccc1NC1=CC(=O)C(=O)c2ccccc21	> 100	–
CCOC(=O)C(C)(C)Oc1ccc(Cl)cc1	> 1000	–
OC(c1ccc(F)cc1)(c1ccc(F)cc1)C1CC1	> 100	–

SMILES	TGI [µM]	GI50
COc1cc(C2CC(C)(N3CCCC3)Oc3cc4c(cc32)OCO4)cc(OC)c1OC (stereo not drawn)	> 100	–
NCCSCC(N)C(=O)O (stereo not drawn)	> 497	> 497 µM
COc1ccc(C2C(Cl)C(=O)N2NC(=O)c2ccccc2O)cc1 (stereo not drawn)	> 100	–
Cc1ccncc1N1CCN(c2ccnc(Cl)c2)C1=O	> 100	> 100 µM
CCOC(=O)C1(C(C)=O)OC(=O)c2cnccc21 (stereo not drawn)	> 100	–
COc1ccccc1C1(c2c(OC(C)C)c(=O)c2=O)SCCCS1	> 100	–
CN1CCN(Cn2nc(COc3ccc(Cl)cc3)n(/N=C/c3ccc(-c4ccc(Cl)cc4Cl)o3)c2=S)CC1	22	–
CCOC(=O)c1c(O)cc(=O)[nH]c1N1CCOCC1	> 100	–
O=[N+]([O-])c1ccc(-c2nc(/C=N/N3CCCCC3)cs2)o1	> 100	–
Cn1ccnc1C(=O)/C=C/c1ccc(C(=O)Nc2ccccc2F)cc1	3.97	1.81 µM
CC(C)(C)c1ccc(-n2c3nc(=O)n(-c4ccccc4C(F)(F)F)c(=O)c-3cc3ccccc32)cc1	67.8	–
COC(=O)[C@H](Cc1c[nH]c2ccccc12)NC(=O)OCC1OC(n2cc(C)c(=O)[nH]c2=O)CC1N=[N+]=[N-] (stereo partly drawn)	> 100	–
CCCCCC/C=C\CCCCCCCCCc1cc(O)cc(OC)c1O	4.86	0.397 µM
COc1ccc2c(c1)-c1c(c3cc(OC)ccc3n1CCN1CCOCC1)CC2	> 100	–
COC(=O)c1ccc([C@H]2c3[nH]c4ccccc4c3C[C@H](C(=O)OC)N2C(=O)CCl)cc1	18.2	5.42 µM
O=C(Cc1nc2cccnc2nc1/C=C(\O)c1ccccc1)c1ccccc1	> 100	–
CCOC(=O)c1cnc2oc(-c3ccc(OC)cc3)nn2c1=O	> 100	–
CC(C)(C)c1ccc2c(c1)S(=O)(=O)Nc1cccc(c1)NS(=O)(=O)c1cc(C(C)(C)C)ccc1OCCOCCO2	> 100	–
C=CCCCC(=O)CCC(=O)OCC1O[C@@H](O[C@@H]2C(O)[C@@H](OC(C)=O)C(C)O[C@H]2O[C@H](CC=C)CCCCC)C(O)[C@@H](OC(=O)/C(C)=C/C)[C@@H]1OC(=O)/C=C/c1ccccc1 (stereo partly drawn)	> 50	1.51 µM
CN(C)CCCNC(=S)S	> 100	–
CCOC(=O)C1N(S(=O)(=O)c2ccc(C)cc2)CCC12C(c1ccc(OC)c(OC)c1)=Nc1ccccc12 (stereo not drawn)	> 100	–
C/C1=C/C2OC(=O)C3(C)C2C(CC2(C)OC1=CC2=O)OC3(O)C(C)C (stereo not drawn)	> 100	–
CC(Cc1ccc(O)cc1)NCC(O)c1ccc(O)c(O)c1 (stereo not drawn)	> 100	–
COc1ccc2nc(NC(=O)COc3cc(/C=C\c4cc(OC)c(OC)c(OC)c4)ccc3OC)sc2c1	> 100	> 100 µM
CCOC(=O)C(NC(=O)CC)(C(F)(F)F)P(=O)(OCC)OCC (stereo not drawn)	> 100	–

SMILES	TGI [µM]	GI50
Cc1ccc(C(=O)CCl)o1	> 10	–
COC(=O)/C(C#N)=C1\CCC(Nc2cccc(C(F)(F)F)c2)N1C (stereo not drawn)	> 100	–
COc1nc(NC2OCC(O)C(O)C2O)c(NC2OCC(O)C(O)C2O)c(=O)n1C (stereo not drawn)	> 100	–
CC1(SCC(N)C(=O)O)CC(=O)NC1=O (stereo not drawn)	> 100	–
Cc1ccc(C2C(Cl)C(=O)N2n2cnc3ccccc3c2=O)cc1 (stereo not drawn)	> 100	–
COC(=O)CCCc1ccc2c(c1)CC1(Cc3ccccc3C1)C2	> 100	–
CC(C)=CCc1ccc2[nH]c3c(c2c1)C(=O)C(=O)C(C)=C3C(O)C(C)O (stereo not drawn)	32.7	–
COc1ccc(C(=O)NCCNc2nccc(-c3c(-c4ccc(F)cc4)nc4sccn34)n2)cc1	44.1	5.26 µM
CC1(C)CC2(S(=O)(=O)c3ccccc3)ON1CC2S(=O)(=O)c1ccccc1 (stereo not drawn)	> 100	–
CCOC(=O)C(=O)Nc1cccc(Cl)c1C	> 100	–
Nc1nc(Cl)c(/C=N\O)c(NCC2(CO)CC(=O)C2)n1	> 100	–
COc1ccc(NC(=O)c2sc3nc(C)c(C(=O)/C=C/c4ccccc4)cc3c2N)cc1	5.84	1.49 µM
COc1ccc(/C=C/C(=O)Oc2ccc(/C=C3\CCCCC3=O)cc2)cc1	> 100	–
Clc1ccc(Cl)c(N=Nc2cc3c4c(c2)CCCN4CCC3)c1	> 10	–
COC(=O)N1c2ccc3c(nc(Cc4ccccc4)n3[C@H]3CCC[C@H](C(=O)O)C3)c2CC[C@@H]1C	> 100	15.1 µM
O=C1C=CC2(C=C1)CCC(=O)O2	44.3	–
CCN(C(=O)N[C@@H](Cc1ccccc1)C(=O)N[C@@H](CC(C)C)C(=O)NC)c1ccccc1	> 100	–
CO[C@]12C#CC=CC#C[C@@H](O)[C@]3(CCC1)O[C@@]23c1cccc(O)c1	> 100	–
Cc1ccc(N=Nc2c(O)c(S(=O)(=O)O)cc3cc(S(=O)(=O)O)ccc23)c(C)c1	> 100	–
O=c1c2ccccc2sc2nc(CCl)nn12	25.9	–
N#Cc1ccccc1C#C/C=C\C#Cc1cccs1	96.6	29.8 µM
COc1ccc2oc(=O)cc(C3c4ccc([nH]4)C(c4cc(=O)oc5ccc(OC)cc45)c4ccc([nH]4)C(c4cc(=O)oc5ccc(OC)cc45)c4ccc([nH]4)C(c4cc(=O)oc5ccc(OC)cc45)c4ccc3[nH]4)c2c1 (stereo not drawn)	14.8	3.73 µM
CO/C=C(/C(=O)OC)c1ccccc1Oc1c(F)c(F)c(F)c(F)c1F	85.5	–
